# ChEMBL document CHEMBL4888484, “Replenishing the malaria drug discovery pipeline: Screening and hit evaluation of the MMV Hit Generation Library 1 (HGL1) against asexual blood stage Plasmodium falciparum ,using a nano luciferase reporter read-out” (2022)
# Hit rate of the full screen: of about 150,000 compounds, about 540 (0.36%) showed an effect of 50% or more. This is one part of the list.
# Tested on: Plasmodium falciparum
# Test: Primary screen in NF54 nanoGlo assay, in single point, at 2uM, 72h; a lower Z score goes with more inhibition
# Type: functional, Erythrocyte
# Conditions: timepoint 72 hour
SMILES,% Inhibition [%],Z score
c1ccc2oc(C(NC3CCOC3)C3CC3)cc2c1 (configuration not stated),-11,0.99
CN1C(=O)NC2c3ccccc3O[C@@]1(C)C2C(=O)Nc1ccccc1 (some centres not stated),5,-0.68
O=C(CN(C(=O)Nc1ccccc1)C1CC1)N(CCc1c[nH]c2ccccc12)Cc1ccc(Cl)cc1,-7,0.94
CC1(C)[C@H](C(F)(F)F)CCN1C(=O)Nc1nc2ccccc2s1,-13,1.7
CCCc1cnc(C)nc1N1C[C@H]2CC[C@@H](C1)N(Cc1ccccn1)C2=O,-8,0.82
COc1cccc(CN(CC2(C#N)CC2)C2CCC(O)CC2)c1 (configuration not stated),-2,0.31
CC(C)n1cc(NC(=O)CCc2cccnc2)cn1,-21,1.91
Cc1ccc(NC(=O)c2c(C)oc3nc(C)nc(N4CCOCC4)c23)c(C)c1,1,-0.12
CCc1nc(C)ccc1OCc1ncnn1C,27,-3.03
CC(=O)[C@@H]1C[C@H](C(=O)NCc2nnc3ccccn23)C1(C)C,-8,1.26
O=C(c1cccs1)N1CC(C(=O)N2CCC(O)CC2)C1,-8,1.08
Cn1c(CCc2ccc(NC(=O)c3cccc(Cl)c3)cc2)nc2ccccc21,-11,1.14
O=C(Cc1ccco1)Nc1ccncc1F,-1,0.1
CC(CC(=O)O)(C(=O)N1CC[C@H](OC(F)F)C1)C1CCCCC1 (some centres not stated),-10,1.24
Cc1cccc(Cl)c1C(=O)NCC1(C)COC1,1,-0.1
CN(C[C@H]1Cc2ccccc2CO1)C(=O)c1ccoc1,-10,1.18
CCc1ccc([C@@H]2CN(C(=O)Cc3noc4ccccc34)CCO2)cc1,1,-0.14
CCC1CN(C(=O)c2cnn3ccc(N)cc23)CC(C)O1 (configuration not stated),1,-0.18
COc1ccc([C@@H]2CCCN2c2ccc(C(=O)NC(C)C)nn2)cc1,-7,0.74

SMILES,% Inhibition [%],Z score
CN1CCC[C@H](CNC(=O)c2cccc3c(=O)c4ccccc4[nH]c23)C1,-11,1.45
O=C(Cc1ccc(F)cc1)NCC1(CO)CCC1,-8,0.77
COCc1nc(CNC(=O)c2nnc(C(C)C)s2)cs1,-8,1.39
COC[C@H]1CCCCN1C(=O)NCc1snnc1C,28,-3.16
C[C@@H](CO)NC(=O)C(=O)Nc1cccc(C(C)(C)O)c1,12,-1.53
C[C@@H](C(=O)c1ccc(F)cc1)n1cnc(-c2ccc(F)cc2)cc1=O,12,-1.53
CCC(=O)N1CCCOC12CN(C(=O)OC(C)(C)C)C2,7,-0.75
O=C(C[C@H](O)c1ccccc1)N1Cc2cccc(Br)c2C1,-12,1.29
C[C@@H](CC(=O)Nc1cccc2c1C(=O)NC2)N1CCCCC1=O,9,-1.03
CC[C@H]1c2cccn2CCN1C(=O)Cc1sc(C)nc1C,-13,1.84
c1cc2c(cc1CNCC1CCCCC1)OCO2,3,-0.38
Cc1noc(C)c1C(=O)N1CCc2[nH]ncc2C1,-14,1.63
Cc1ncsc1CN1CCC(OC2CCCCC2)CC1,-4,0.48
CCNC(=O)C(C)(C)CNc1ccc(Br)cn1,5,-0.98
O=C(O)c1cccc(CN2CCc3nc(C4CC4)ncc3C2)c1,-13,1.45
Cn1ccc(CN2CCC[C@H](c3cc(C(F)(F)F)[nH]n3)C2)cc1=O,1,-0.11
C[C@@H](NCCc1cnn(C)c1)c1ccc(Br)cc1,-10,0.97
Cc1ccc(C(=O)N(Cc2cccc(F)c2)c2ccc(CC(=O)N[C@@H](C)c3ccccc3)cc2)cc1,74,-8.26
CS(=O)(=O)[C@H]1CCCN(C(=O)c2ccc3c(c2)CCCCC3=O)CC1,-5,0.54

SMILES,% Inhibition [%],Z score
CCOc1ccncc1S(=O)(=O)N1CCC[C@@]12CCOC2,-7,1.23
O=C(N[C@@H]1CC[C@H]2CCOc3ccccc3C(=O)N3CCN(Cc4cccc(Cl)c4)C[C@H]3C(=O)NC[C@H]1O2)C1CCOCC1,-13,2.01
COc1cccc(CN2CCN(Cc3cnc(N4CCCC4)s3)C[C@@H]2CCO)c1,-3,0.63
CC(CNC(C1CC1)C1CC1)N1CCOCC1C (configuration not stated),-5,0.4
O=C(CC1CC1)Nc1ccnn1C1CCCCC1,-19,1.96
O=C(Nc1ccc(N2CCN(C(=O)c3ccccc3)CC2)nc1)c1ccccc1,-6,1.21
Cc1cc(=O)n(CCN(C)Cc2snnc2C)c(=O)[nH]1,-2,0.37
CCCn1c(=O)[nH]c2c(C(=O)N3CCN(C(C)C)CC3)snc2c1=O,-10,1.69
Cc1ccc(-c2cc(C(N)=O)ccn2)c(-n2nc(C)cc2C)c1,-8,1.17
CC(C)N1CCO[C@H](c2noc(C=Cc3cccnc3)n2)C1,-15,1.25
CC(=O)N(Cc1cc2ccc(C)cc2nc1O)C[C@H]1CCCO1,-19,2.22
CC(=O)Nc1ccc(-c2cn([C@H]3CCCN(c4ncccn4)C3)nn2)cc1,-13,1.19
CN(C)c1cccc(-c2cc(NCCO)nc(N)n2)c1,-2,0.38
Cc1noc(C)c1S(=O)(=O)Nc1ccc2c(c1)OC1(CCCC1)O2,5,-0.73
COCCOCC(=O)Nc1ccc(OC(C)C)cc1,-4,0.73
COC1(C)CN(C(=O)c2cnns2)C1,1,-0.27
O=C(COCC(F)(F)C(F)F)N1CCC[C@]2(CCC(=O)N(C3CC3)C2)C1,-13,1.39
O=C(COc1ccccc1F)Nc1ccc(C2(c3ccc(NC(=O)COc4ccccc4F)cc3)CCCCC2)cc1,-8,1.57
